The test system of assay [1] is HSkMC (human skeletal muscle cells). Kind of assay: cytotoxicity call (relative viability < 0.9). The settings on record: 10 µM.
In assay [2] the test system is HepG2. Put plainly: cytotoxicity call (relative viability < 0.9). The conditions noted are these: 10 µM.
Assay [3] concerns S. aureus RN4220. Put plainly: growth inhibition call (relative growth <= 0.2). The conditions noted are these: 50 µM.

This is one part of the list.

For the compound `Oc1c(I)cc(I)c2cccnc12`, in assay [1], the cytotoxicity call is “inactive”. Besides, the cytotoxicity call in assay [2] was “active”. Besides, in assay [3], the growth inhibition call was “inactive”.
Turning to `Cl.NC(CS)C(=O)O` (configuration not stated), the cytotoxicity call in assay [1] and in assay [2] was “inactive” each time. The growth inhibition call in assay [3] was “inactive”.
Regarding `CN(C)CC(=O)N1CC(=O)N2[C@H](C1)[C@@H](c1ccc(C#Cc3cccnc3)cc1)[C@@H]2CO`, the cytotoxicity call in assay [1] and in assay [2] was “inactive” in each case. Besides, the growth inhibition call in assay [3] was “inactive”.
On to `COc1ccccc1N1CCN(CCCNc2cc(=O)n(C)c(=O)n2C)CC1.Cl`, for which the cytotoxicity call in assay [1] and in assay [2] was “inactive” in each case. Also, in assay [3], the growth inhibition call is “inactive”.
For the compound `COC(=O)CC1C(C)(C)C(=O)C2CC3C4=CC(=O)OC(c5ccoc5)C4(C)CCC3C1(C)C2=O` (configuration not stated), the cytotoxicity call in assay [1] and in assay [2] was “inactive” in each case. Also, the growth inhibition call in assay [3] was “inactive”.
For `COCC#Cc1ccc2c(c1)O[C@H](CN(C)Cc1ccc3c(c1)OCO3)[C@@H](C)CN([C@@H](C)CO)S2(=O)=O`, the cytotoxicity call in assay [1] and in assay [2] was “inactive” in each case. For the same compound, the growth inhibition call in assay [3] is “inactive”.
As for `Cc1noc(C)c1NC(=O)N(C)C[C@@H]1Oc2c(NC(=O)C3CCOCC3)cccc2C(=O)N([C@H](C)CO)C[C@H]1C`, the cytotoxicity call in assay [1] and in assay [2] was “inactive” each time. Moreover, in assay [3], the growth inhibition call was “inactive”.
Consider `C[C@@H]1CN([C@@H](C)CO)C(=O)c2cc(NC(=O)Cc3ccccc3)ccc2O[C@@H](C)CCCCO[C@H]1CN(C)Cc1ccc(C(F)(F)F)cc1`, for which the cytotoxicity call in assay [1] and in assay [2] was “inactive” each time. The growth inhibition call in assay [3] is “inactive”.
With `C[C@H]1CN([C@@H](C)CO)S(=O)(=O)c2ccc(C#CC3(O)CCCC3)cc2O[C@H]1CN(C)C(=O)Cc1ccccc1`, the cytotoxicity call in assay [1] and in assay [2] was “inactive” each time. Moreover, in assay [3], the growth inhibition call is “inactive”.
For `COc1ccc(NC(=O)N(C)C[C@@H]2OCCCC[C@@H](C)Oc3ccc(NS(=O)(=O)c4ccc(C)cc4)cc3C(=O)N([C@@H](C)CO)C[C@H]2C)cc1`, the cytotoxicity call in assay [1] and in assay [2] was “inactive” each time. Further, in assay [3], the growth inhibition call was “inactive”.
In the case of `C[C@@H]1CN([C@@H](C)CO)C(=O)Cc2cc(NS(=O)(=O)c3cccs3)ccc2O[C@H]1CN(C)S(=O)(=O)c1cccs1`, the cytotoxicity call in assay [1] and in assay [2] was “inactive” each time. Also, in assay [3], the growth inhibition call was “inactive”.
For the compound `C[C@H](CO)N1C[C@H](C)[C@@H](CN(C)C(=O)Nc2ccc(F)cc2)OCCCC[C@H](C)Oc2ccc(NS(=O)(=O)c3ccccc3)cc2C1=O`, the cytotoxicity call in assay [1] and in assay [2] was “inactive” throughout. In addition, in assay [3], the growth inhibition call is “inactive”.
Take `CC(C)NC(=O)N(C)C[C@H]1Oc2ccc(NS(=O)(=O)c3cn(C)cn3)cc2C(=O)N([C@@H](C)CO)C[C@H]1C`: the cytotoxicity call in assay [1] and in assay [2] was “inactive” each time. Besides, the growth inhibition call in assay [3] is “inactive”.
`C/C=C/c1ccc([C@H]2[C@@H](CO)N(S(=O)(=O)CC)C23CN(C(=O)CN(C)C)C3)cc1`: the cytotoxicity call in assay [1] and in assay [2] was “inactive” in each case. In assay [3], the growth inhibition call is “inactive”.
As to `C[C@@H]1CCCCO[C@@H](CN(C)C(=O)NC2CCCCC2)[C@@H](C)CN([C@@H](C)CO)C(=O)c2cc(NS(=O)(=O)c3ccc(F)cc3)ccc2O1`, the cytotoxicity call in assay [1] and in assay [2] was “inactive” each time. Also, in assay [3], the growth inhibition call is “inactive”.
As to `C[C@@H]1CCCCO[C@H](CN(C)Cc2ccc3c(c2)OCO3)[C@@H](C)CN([C@H](C)CO)C(=O)c2cc(NS(=O)(=O)c3cccs3)ccc2O1`, the cytotoxicity call in assay [1] and in assay [2] was “inactive” in each case. Also, in assay [3], the growth inhibition call is “inactive”.
`COc1ccccc1CNC(=O)C[C@@H]1CC[C@H]2[C@@H](COC[C@@H](O)CN2C(=O)Nc2ccc(Cl)cc2)O1`: the cytotoxicity call in assay [1] and in assay [2] was “inactive” in each case. Further, the growth inhibition call in assay [3] is “inactive”.
`C=CN1CCCC1=O`: the cytotoxicity call in assay [1] and in assay [2] was “inactive” each time. Moreover, the growth inhibition call in assay [3] is “inactive”.
On to `O=C(c1ccccc1Cl)N(c1ccc2oc(=O)sc2c1)S(=O)(=O)c1ccc(Br)cc1`, for which the cytotoxicity call in assay [1] and in assay [2] was “inactive” throughout. The growth inhibition call in assay [3] was “inactive”.
In the case of `O=C(C[C@H]1C[C@H]2c3cc(NC(=O)c4ccc5c(c4)OCO5)ccc3O[C@H]2[C@@H](CO)O1)NCc1cccnc1`, the cytotoxicity call in assay [1] and in assay [2] was “inactive” in each case. For the same compound, the growth inhibition call in assay [3] is “inactive”.
`CO[C@@H]1CN(C)C(=O)c2cc(NC(=O)NC(C)C)ccc2OC[C@H](C)N(Cc2ccc(-c3ccccn3)cc2)C[C@@H]1C`: the cytotoxicity call in assay [1] and in assay [2] was “inactive” throughout. The growth inhibition call in assay [3] is “inactive”.
`NC1=NN(c2ccccc2)C(=O)C1`: the cytotoxicity call in assay [1] and in assay [2] was “inactive” in each case. In assay [3], the growth inhibition call is “inactive”.
In the case of `CCOC(=O)c1c(CN2CCN(c3ccc(C)cc3)CC2)n(-c2ccccc2)c2cc(Br)c(OC)cc12`, the cytotoxicity call in assay [1] and in assay [2] was “inactive” throughout. Also, in assay [3], the growth inhibition call is “inactive”.
`Cn1c(=O)c2c(ncn2CC2OCCO2)n(C)c1=O`: the cytotoxicity call in assay [1] and in assay [2] was “inactive” each time. Also, in assay [3], the growth inhibition call was “inactive”.
`CCN1CCCC1=O`: the cytotoxicity call in assay [1] and in assay [2] was “inactive” in each case. For the same compound, the growth inhibition call in assay [3] was “inactive”.
Consider `C[C@@H]1CN([C@@H](C)CO)C(=O)c2ccccc2-c2ccccc2CO[C@H]1CN(C)C(=O)Nc1cccc(F)c1`, for which the cytotoxicity call in assay [1] and in assay [2] was “inactive” in each case. The growth inhibition call in assay [3] is “inactive”.
On to `O=C(C[C@@H]1C[C@H]2c3cc(NC(=O)C4CCOCC4)ccc3O[C@H]2[C@H](CO)O1)NCc1cc(F)ccc1F`, for which the cytotoxicity call in assay [1] and in assay [2] was “inactive” in each case. Also, the growth inhibition call in assay [3] was “inactive”.
In the case of `CO[C@H]1CN(C)C(=O)c2ccc(NS(C)(=O)=O)cc2OC[C@@H](C)N(C(=O)C2CCCCC2)C[C@@H]1C`, the cytotoxicity call in assay [1] and in assay [2] was “inactive” throughout. Moreover, the growth inhibition call in assay [3] was “inactive”.
In the case of `N[C@@H](CC(=O)NO)C(=O)O`, the cytotoxicity call in assay [1] and in assay [2] was “inactive” throughout. For the same compound, in assay [3], the growth inhibition call was “inactive”.
